Consider 40 compounds from the supplement of paper PMC9174493.

This is one part of the list. Single values of this set are uncertain. Values with irradiation are relative to irradiated vehicle.
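Further: viability correction based on the alamar blue assay, with concentrations leaving 10% survival or less dropped.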

One experiment has as its system A549-Dual. Kind of experiment: NF-kB reporter (SEAP) activity, viability-corrected, relative to vehicle (fold change vs vehicle); higher = more activation of STING-IRF / NF-kB immune response reporter. The note with it: 10 µM; irradiation: 8 Gy/4 fr.
`COCC(=O)Nc1cc(Sc2ccccc2)ccc1N=C(NC(=O)OC)NC(=O)OC` [Febantel] gave an NF-kB reporter of 0.652.
For the compound `O=C(CCCN1CCN(c2ccccn2)CC1)c1ccc(F)cc1` [Azaperone], the NF-kB reporter came out at 0.803.
`CCCC1CC(C(=O)NC(C(C)O)C2OC(SC)C(O)C(O)C2O)N(C)C1.Cl.O` (centres undefined) [Lincomycin Hydrochloride Monohydrate] came in with an NF-kB reporter of 0.856.
With `CC(OC(=O)OC1CCCCC1)OC(=O)C1=C(CSc2nnnn2CCN(C)C)CSC2C(NC(=O)Cc3csc(N)n3)C(=O)N12.Cl.Cl` (centres undefined) [Cefotiam Hexetil Hydrochloride], the NF-kB reporter is 1.13.
In turn, `OC(Cn1cncn1)(Cn1cncn1)c1ccc(F)cc1F` [Fluconazole] showed an NF-kB reporter of 0.744.
On the same count and under the same terms, for `COc1ccccc1OCC(O)CN1CCN(CC(=O)Nc2c(C)cccc2C)CC1` (centres undefined) [Ranolazine] the value was 0.644; for `COc1ccc(CCNCC(O)COc2cccc(C)c2)cc1OC.Cl` (centres undefined) [Bevantolol hydrochloride], 0.945; for `NC(C(=O)NC1C(=O)N2C(C(=O)O)=C(Cl)CSC12)c1ccccc1.O` (centres undefined) [Cefaclor], 0.864.
`CCCN1CCCCC1C(=O)Nc1c(C)cccc1C.CS(=O)(=O)O` (centres undefined) [Ropivacaine Mesilate] gave an NF-kB reporter of 0.431.
Still for that read-out and setting: for `C=CCNC(N)=S` [Allylthiourea] the value was 0.848; for `Brc1c(NC2=NCCN2)ccc2nccnc12` [Brimonidine], 0.676.
Same read-out and setting: for `Nc1ccc(S(=O)(=O)c2ccc(N)cc2)cc1` [Dapson] the value was 0.758; for `OCC1OC(OC2C(CO)OC(OC3C(CO)OC(O)C(O)C3O)C(O)C2O)C(O)C(O)C1O` (centres undefined) [Maltotriose], 0.772; for `CCN(Cc1ccncc1)C(=O)C(CO)c1ccccc1` (centres undefined) [Tropicamide], 0.829.
On the same count and under the same terms, for `COc1cc2ccc(=O)oc2cc1O` [Scopoletin] the value was 0.794.
`COC1C(OC(N)=O)C(O)C(Oc2ccc3c(O)c(NC(=O)c4ccc([O-])c(CC=C(C)C)c4)c(=O)oc3c2C)OC1(C)C.[Na+]` (centres undefined) [Novobiocin Sodium] gave an NF-kB reporter of 0.874.
Still for that read-out and setting: for `CN1CCCC(n2nc(Cc3ccc(Cl)cc3)c3ccccc3c2=O)CC1.Cl` (centres undefined) [Azelastine HCl] the value was 1.07; for `NS(=O)(=O)c1ccccc1` [Benzenesulfonamide], 1.35; for `Cl.Clc1ccc2nsnc2c1NC1=NCCN1` [Tizanidine HCl], 0.752.
The compound `CO/N=C(/C(=O)NC1C(=O)N2C(C(=O)O)=C(CSC(=O)c3ccco3)CSC12)c1csc(N)n1.Cl` (centres undefined) [Ceftiofur HCl] returned an NF-kB reporter of 0.683.
On the same count and under the same terms, for `CC(C[N+](C)(C)C)OC(N)=O.[Cl-]` (centres undefined) [Bethanechol chloride] the value was 0.907; for `Nc1ccc(C(=O)O)c(O)c1` [4-Aminosalicylic acid], 0.896.
Same read-out and setting: for `C/C(=C(\CCOC(=O)C(C)C)SS/C(CCOC(=O)C(C)C)=C(/C)N(C=O)Cc1cnc(C)nc1N)N(C=O)Cc1cnc(C)nc1N` [Sulbutiamine] the value was 0.582.
`Cl.OC(CCN1CCCCC1)(c1ccccc1)C1CCCCC1` (centres undefined) [Trihexyphenidyl hydrochloride] gave an NF-kB reporter of 0.795.
The same measure, in the same setting: for `Clc1ccc(Cn2c(CN3CCCC3)nc3ccccc32)cc1` [Clemizole] the value was 0.442.
In the case of `O=C([O][Ca][O]C(=O)C(O)C(O)C(O)C(O)C(O)CO)C(O)C(O)C(O)C(O)C(O)CO` (centres undefined) [Calcium Gluceptate], the NF-kB reporter is 1.16.
`CC1CCC2C(C)C(OC(=O)CCC(=O)O)OC3OC4(C)CCC1C32OO4` (centres undefined) [Artesunate] came in with an NF-kB reporter of 0.823.
The same measure, in the same setting: for `CC(C)NCC(O)c1ccc(NS(C)(=O)=O)cc1.Cl` (centres undefined) [Sotalol HCl] the value was 1.17; for `CCCN(CCc1cccs1)C1CCc2c(O)cccc2C1` (centres undefined) [Rotigotine], 0.828.

The experiment is the same for the next values; noted with them: 10 µM; irradiation: none.
`COc1cnc(NS(=O)(=O)c2ccc(N)cc2)nc1` [Sulfameter] showed an NF-kB reporter of 0.869.
Still for that read-out and setting: for `NS(=O)(=O)c1cc(C2(O)NC(=O)c3ccccc32)ccc1Cl` (centres undefined) [Chlorthalidone] the value was 1.3; for `C[N+](C)(CCOc1ccccc1)Cc1ccccc1.O=C([O-])c1cc2ccccc2cc1O` [Bephenium Hydroxynaphthoate], 0.934; for `Br.CN1CCCC1Cc1c[nH]c2ccc(CCS(=O)(=O)c3ccccc3)cc12` (centres undefined) [Eletriptan HBr], 0.748.
Same read-out and setting: for `COC(=O)NC(C(=O)NC(Cc1ccccc1)C(O)CN(Cc1ccc(-c2ccccn2)cc1)NC(=O)C(NC(=O)OC)C(C)(C)C)C(C)(C)C` (centres undefined) [Atazanavir] the value was 0.852; for `O=C(O)CCn1c2c(c3ccccc31)CC(NS(=O)(=O)c1ccc(F)cc1)CC2` (centres undefined) [Ramatroban], 0.688; for `O=C(NCc1c(F)cc(F)cc1F)c1cn2c(c(O)c1=O)C(=O)N1C3CCC(C3)OC1C2` (centres undefined) [Bictegravir], 1.51.
`CC1(C)CC(=O)CC(C)(C)N1` [TriacetonaMine]: the NF-kB reporter worked out at 0.914.
The same measure, in the same setting: for `CCN(CC)C(=O)Nc1ccc(OCC(O)CNC(C)(C)C)c(C(C)=O)c1.Cl` (centres undefined) [Celiprolol hydrochloride] the value was 0.966; for `O=C(NCC1CN(c2ccc(N3CCOCC3=O)cc2)C(=O)O1)c1ccc(Cl)s1` (centres undefined) [Rivaroxaban], 0.833.
Still for that read-out and setting: for `CC1CC(C(=O)O)C2CCC3(C)C(=CCC4C5(C)CCC(O)C(C)(C)C5CCC43C)C2C1C` (centres undefined) [Ursolic Acid] the value was 1.04; for `COCC(=O)Nc1cc(Sc2ccccc2)ccc1N=C(NC(=O)OC)NC(=O)OC` [Febantel], 0.855.
`O=C(CCCN1CCN(c2ccccn2)CC1)c1ccc(F)cc1` [Azaperone] registered an NF-kB reporter of 1.33.
On the same count and under the same terms, for `CCCC1CC(C(=O)NC(C(C)O)C2OC(SC)C(O)C(O)C2O)N(C)C1.Cl.O` (centres undefined) [Lincomycin Hydrochloride Monohydrate] the value was 0.881; for `CC(OC(=O)OC1CCCCC1)OC(=O)C1=C(CSc2nnnn2CCN(C)C)CSC2C(NC(=O)Cc3csc(N)n3)C(=O)N12.Cl.Cl` (centres undefined) [Cefotiam Hexetil Hydrochloride], 1.96; for `OC(Cn1cncn1)(Cn1cncn1)c1ccc(F)cc1F` [Fluconazole], 0.902.
As to `COc1ccccc1OCC(O)CN1CCN(CC(=O)Nc2c(C)cccc2C)CC1` (centres undefined) [Ranolazine], the NF-kB reporter was determined as 0.581.
As for `COc1ccc(CCNCC(O)COc2cccc(C)c2)cc1OC.Cl` (centres undefined) [Bevantolol hydrochloride], the NF-kB reporter worked out at 0.747.
The same measure, in the same setting: for `NC(C(=O)NC1C(=O)N2C(C(=O)O)=C(Cl)CSC12)c1ccccc1.O` (centres undefined) [Cefaclor] the value was 0.823.
The compound `CCCN1CCCCC1C(=O)Nc1c(C)cccc1C.CS(=O)(=O)O` (centres undefined) [Ropivacaine Mesilate] had an NF-kB reporter of 1.05.
Same read-out and setting: for `C=CCNC(N)=S` [Allylthiourea] the value was 0.865.
In the case of `Brc1c(NC2=NCCN2)ccc2nccnc12` [Brimonidine], the NF-kB reporter is 0.901.
Still for that read-out and setting: for `Nc1ccc(S(=O)(=O)c2ccc(N)cc2)cc1` [Dapson] the value was 0.991; for `OCC1OC(OC2C(CO)OC(OC3C(CO)OC(O)C(O)C3O)C(O)C2O)C(O)C(O)C1O` (centres undefined) [Maltotriose], 0.606; for `CCN(Cc1ccncc1)C(=O)C(CO)c1ccccc1` (centres undefined) [Tropicamide], 0.699.
The compound `COc1cc2ccc(=O)oc2cc1O` [Scopoletin] had an NF-kB reporter of 0.595.
In turn, `COC1C(OC(N)=O)C(O)C(Oc2ccc3c(O)c(NC(=O)c4ccc([O-])c(CC=C(C)C)c4)c(=O)oc3c2C)OC1(C)C.[Na+]` (centres undefined) [Novobiocin Sodium] gave an NF-kB reporter of 1.09.
Still for that read-out and setting: for `CN1CCCC(n2nc(Cc3ccc(Cl)cc3)c3ccccc3c2=O)CC1.Cl` (centres undefined) [Azelastine HCl] the value was 1.14; for `NS(=O)(=O)c1ccccc1` [Benzenesulfonamide], 0.847.
As for `Cl.Clc1ccc2nsnc2c1NC1=NCCN1` [Tizanidine HCl], the NF-kB reporter stood at 0.922.
On the same count and under the same terms, for `CO/N=C(/C(=O)NC1C(=O)N2C(C(=O)O)=C(CSC(=O)c3ccco3)CSC12)c1csc(N)n1.Cl` (centres undefined) [Ceftiofur HCl] the value was 1.08.
On to `CC(C[N+](C)(C)C)OC(N)=O.[Cl-]` (centres undefined) [Bethanechol chloride], for which the NF-kB reporter was found to be 0.928.
Still for that read-out and setting: for `Nc1ccc(C(=O)O)c(O)c1` [4-Aminosalicylic acid] the value was 0.868; for `C/C(=C(\CCOC(=O)C(C)C)SS/C(CCOC(=O)C(C)C)=C(/C)N(C=O)Cc1cnc(C)nc1N)N(C=O)Cc1cnc(C)nc1N` [Sulbutiamine], 1.17; for `Cl.OC(CCN1CCCCC1)(c1ccccc1)C1CCCCC1` (centres undefined) [Trihexyphenidyl hydrochloride], 1.5.
For `Clc1ccc(Cn2c(CN3CCCC3)nc3ccccc32)cc1` [Clemizole], the NF-kB reporter came out at 0.667.
`O=C([O][Ca][O]C(=O)C(O)C(O)C(O)C(O)C(O)CO)C(O)C(O)C(O)C(O)C(O)CO` (centres undefined) [Calcium Gluceptate] displayed an NF-kB reporter of 0.881.
The same measure, in the same setting: for `CC1CCC2C(C)C(OC(=O)CCC(=O)O)OC3OC4(C)CCC1C32OO4` (centres undefined) [Artesunate] the value was 1.32; for `CC(C)NCC(O)c1ccc(NS(C)(=O)=O)cc1.Cl` (centres undefined) [Sotalol HCl], 1.12; for `CCCN(CCc1cccs1)C1CCc2c(O)cccc2C1` (centres undefined) [Rotigotine], 0.777.
